Not every entry of the source has a single result; some have several. This is not the full list of results. The source may hold further records. Values given together repeat one measurement (runs, samples, wells, individuals or studies). Records carry a tag for their origin. A, B and so on number the origins entry by entry. Signs of the kind (2×) say how often a value occurs here.
Conditions: Aspergillus oryzae (strain ATCC 42149 / RIB 40); pH 7; Thermal; Absorbance; Sodium cacodylate 10 mM; reversible: yes; whole UniProt chain shown

B1: Guanyl-specific ribonuclease T1 wild type, P00651 (protein)
chain: MMYSKLLTLTTLLLPTALALPSLVERACDYTCGSNCYSSSDVSTAQAAGYQLHEDGETVGSNSYPHKYNNYEGFDFSVSSPYYEWPILSSGDVYSGGSPGADRVVFNENNQLAGVITHTGASGNNFVECT
Question: For B1, which Tm is on record?
Answer: 57.6 °C [study A] and 57.9 °C, 58 °C (2×), 58.6 °C [study B]

Source: FireProtDB
